This passage reports z-score results from PubChem BioAssay AID488969 (Vanderbilt High Throughput Screening Facility, 2010).

In all, about 110,000 compounds were measured (“z-score”: median about -0.1, highest 2% from about 2 on). The list shows a part of the results. The source made the active and inactive calls.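 Rule for the calls: active = z-score in the third read window above 3 or below -3; inactive = the rest.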

This test concerns the target Metabotropic glutamate receptor 8 (Rattus norvegicus) (UniProt P70579). Briefly: mGluR8 Gi/Go-coupled signaling modulation – cell-based, rat, thallium flux, HTS, primary screen (AID 488969). Particulars: HEK293 rat mGluR8, GIRK (G protein-gated inwardly rectifying potassium channel) thallium flux, FluoZin2; at 10 µM; stronger effect = higher value; submaximal glutamate (EC20) added with thallium.
UniProt P70579, sequence (P70579 whole entry, looked up): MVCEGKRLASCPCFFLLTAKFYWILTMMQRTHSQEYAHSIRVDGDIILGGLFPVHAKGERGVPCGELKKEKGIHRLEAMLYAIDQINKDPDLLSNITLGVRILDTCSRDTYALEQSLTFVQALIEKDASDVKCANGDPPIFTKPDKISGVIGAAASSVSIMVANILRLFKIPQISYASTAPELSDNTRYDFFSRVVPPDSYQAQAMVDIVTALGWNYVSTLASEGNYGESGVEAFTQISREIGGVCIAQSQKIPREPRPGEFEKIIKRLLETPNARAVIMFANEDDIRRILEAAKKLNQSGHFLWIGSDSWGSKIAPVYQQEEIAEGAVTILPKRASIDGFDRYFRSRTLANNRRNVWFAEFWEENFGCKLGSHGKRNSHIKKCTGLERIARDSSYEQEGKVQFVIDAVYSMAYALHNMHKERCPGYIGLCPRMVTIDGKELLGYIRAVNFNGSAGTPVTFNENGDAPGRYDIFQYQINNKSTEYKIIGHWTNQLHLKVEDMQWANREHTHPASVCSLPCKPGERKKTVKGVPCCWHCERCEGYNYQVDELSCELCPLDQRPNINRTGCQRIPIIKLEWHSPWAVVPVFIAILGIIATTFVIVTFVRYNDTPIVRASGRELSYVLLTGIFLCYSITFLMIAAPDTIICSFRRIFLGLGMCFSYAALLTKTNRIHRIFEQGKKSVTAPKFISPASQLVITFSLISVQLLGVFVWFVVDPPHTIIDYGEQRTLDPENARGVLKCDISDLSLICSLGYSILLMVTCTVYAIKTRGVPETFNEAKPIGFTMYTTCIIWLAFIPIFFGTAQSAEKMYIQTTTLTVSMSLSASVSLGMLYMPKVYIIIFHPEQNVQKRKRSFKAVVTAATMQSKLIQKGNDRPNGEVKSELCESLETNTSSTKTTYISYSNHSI
In turn, `COc1ccccc1C(=O)Nc1cc2cc(Cl)ccc2oc1=O` yielded a z-score of 0.0947.

With `COc1ccc(-c2ccc(/C=C3\C(=O)N(c4ccccc4)N=C3c3ccccc3)o2)c([N+](=O)[O-])c1`, the z-score was -0.0771.

On to `Cc1nnc(SCC(=O)Nc2ccc(S(=O)(=O)N3CCCCC3)cc2)s1`, for which the z-score was -0.0149.

In turn, `CCOC(=O)CSc1nc2cc(C(=O)N3CCCC3)ccc2c(=O)n1Cc1ccccc1` came in with a z-score of -1.58.

In turn, `O=c1sc(N2CCN(c3ccc(F)cc3)CC2)nc2ccsc12` had a z-score of -0.181.

For `COc1ccc(S(=O)(=O)N2CCOCC2)cc1NC(=O)c1cc2c(s1)CCCC2`, the z-score was -0.554.

`CCOC(=O)c1cccc(N2C(N)=NC(N)=NC2(C)C)c1` returned a z-score of -0.556.

The compound `CC(C)(C)c1ccc(C(=O)Nc2ccc(N3CCOCC3)cc2)cc1` showed a z-score of -0.496.

With `O=C1NC(=Nc2ccccc2)SC1Cc1cccc(Cl)c1Cl` (centres undefined), the z-score was -0.205.

On to `COc1ccc(/C=N/Nc2nc3ccccc3[nH]2)cc1OC`, for which the z-score is -0.35.

As to `Cc1ccc(CSc2nnc(-c3cccs3)n2C)cc1`, the z-score is -0.479.

In turn, `CCc1ccc(NCCC(=O)c2ccc(Cl)cc2)cc1` registered a z-score of 0.0582.

Consider `O=C(CN1CCN(c2ccc(Cl)cc2)CC1)N1CCCC1`, for which the z-score was -0.0698.

`Cc1cc(Cl)ccc1NC(=S)NCCC(c1ccccc1)c1ccccc1` showed a z-score of -0.444.

As to `CNC(=O)c1sccc1SCc1ccc(Cl)cc1Cl`, the z-score is -0.622.

In turn, `Cc1cccc(NC(=O)CSc2ncnc3c2oc2ccccc23)c1` returned a z-score of 0.296.

In the case of `COc1cc(NC(=O)c2ccco2)c(OC)cc1NC(=O)c1cc(OC)c(OC)c(OC)c1`, the z-score was -1.26.

In turn, `CCOC(=O)c1cnc(-c2ccccc2)nc1Oc1ccc(Cl)c(Cl)c1` showed a z-score of 0.00851.

The compound `O=C(C(c1ccccc1)c1ccccc1)N1CCN(Cc2ccco2)CC1` showed a z-score of -0.593.

`COc1ccc(OC)c(N(CC(=O)Nc2cccnc2)S(=O)(=O)c2ccc(C)cc2)c1`: the z-score worked out at 0.0478.

In turn, `CCOC(=O)c1cc2c(=O)n3cccc(C)c3nc2n(CC2CCCO2)c1=NC(C)=O` (centres undefined) had a z-score of -0.0779.

On to `COC(=O)c1c(NC(=O)CN2CCN(c3cccc(Cl)c3)CC2)sc(C)c1C`, for which the z-score stood at 0.246.

On to `CCOC(=O)N1CCN(S(=O)(=O)c2ccc3c(c2)CCN3C(=O)C2CC2)CC1`, for which the z-score came out at 0.00591.

On to `COC(=O)c1[nH]c2c(c1C)C(=O)CC(c1cc(OC)ccc1OC)C2` (centres undefined), for which the z-score is -0.553.

Turning to `CCOC(=O)C1CCCN(C(=O)Cc2ccc(Cl)cc2)C1` (centres undefined), the z-score was determined as 0.247.

Compound `O=C(Nc1nc(-c2ccc(F)c(F)c2)cs1)c1cc([N+](=O)[O-])ccc1N1CCOCC1` registered a z-score of -0.258.

`COC(=O)c1cccc(NS(=O)(=O)c2ccc(NC(C)=O)cc2)c1C` displayed a z-score of -0.0283.

As to `Cc1ccc(CNc2ccc(N3CCOCC3)c(C(=O)O)c2)s1`, the z-score was determined as 0.589.

In turn, `Cc1cccc(N=Cc2cc3c(cc2[N+](=O)[O-])OCO3)c1` returned a z-score of -0.0653.

As for `Cc1nn(Cc2ccccc2Cl)c(C)c1N`, the z-score was -0.104.

Regarding `COc1ccc(-n2c(N)c(C#N)c3ccc([N+](=O)[O-])cc3c2=O)cc1`, the z-score was 0.119.

Compound `COc1ccc(-c2nc(CCNS(=O)(=O)c3ccc4c(c3)OCCO4)cs2)cc1` yielded a z-score of -0.146.

The compound `COC(=O)c1ccc(Oc2nc(C)cc(Oc3ccccc3)n2)cc1` returned a z-score of -0.75.

`CCOC(=O)C1CCN(CC(O)COc2ccc(C(C)=O)cc2)CC1` (centres undefined) returned a z-score of -0.0456.

For the compound `CC(=O)N(Cc1c(C#N)c2ccccc2n1C)c1ccccc1`, the z-score is -0.168.

`O=C(CCCN1C(=O)c2ccccc2C1=O)NCCCN1CCOCC1` displayed a z-score of 0.731.

In turn, `Cc1cccc2cc(CN(Cc3cccs3)C(=S)NCC3CCCO3)c(=O)[nH]c12` (centres undefined) registered a z-score of -0.229.

`CCOc1ccc(/C=N/NC(=O)C(C)N(c2ccc(OC)cc2)S(C)(=O)=O)cc1` (centres undefined): the z-score is -0.0653.

`Cc1ccc2nc(NC(=O)CN(C)S(=O)(=O)c3cccc4nsnc34)sc2c1`: the z-score worked out at 0.0764.

For `CCCCCOC(=O)Cn1c(=O)c2c(nc(N3CCOCC3)n2C)n(C)c1=O`, the z-score was found to be 0.0775.

Compound `O=C(Nc1ccccc1C(=O)NCCCn1ccnc1)c1ccc(Cl)cc1Cl` yielded a z-score of -0.608.

On to `Brc1ccc(-c2ccc(/C=N/Nc3nc4ccccc4[nH]3)o2)cc1`, for which the z-score was 0.221.

Take `COc1ccc(N/C(C)=C/C(=S)Nc2ccccc2)cc1`: the z-score amounted to 0.204.

In the case of `Cc1cc(C)nc(NS(=O)(=O)c2ccc(NC(=O)c3cccc(N4C(=O)CCC4=O)c3)cc2)n1`, the z-score is -0.0687.

The compound `C/C(=N/NS(=O)(=O)c1ccc(Br)cc1)c1ccc(NC(=O)c2ccc(C)o2)cc1` came in with a z-score of -0.763.

In turn, `Cc1nn(-c2ccccc2)c2sc(C(=O)NC3CC3)cc12` had a z-score of -1.46.

Compound `CC(C)CNS(=O)(=O)c1ccc(CCC(=O)N2CCN(Cc3ccccc3)CC2)cc1` displayed a z-score of -0.316.

`CC1CN(C(=S)NC(=O)c2cccc([N+](=O)[O-])c2)CC(C)O1` (centres undefined) yielded a z-score of 0.539.

For the compound `COC(=O)c1cccc(-n2[nH]nnc2=S)c1`, the z-score was 0.908.

Regarding `Cc1ccc(NS(=O)(=O)c2ccc3c(c2)c(=O)n(C)c(=O)n3C)cc1F`, the z-score was -0.283.

On to `Cc1ccc2[nH]c3c(N4CCN(Cc5ccccc5)CC4)ncnc3c2c1`, for which the z-score was -0.392.

In turn, `CCN(c1ccccc1)S(=O)(=O)c1ccc(C(=O)Oc2ccc(C(C)=O)cc2)cc1` registered a z-score of -0.819.

`C/C(=N\NC(=O)c1ccccc1-n1cccc1)C1CC1`: the z-score is -0.158.

In turn, `CC(C)(C)C(=O)Nc1ccc(C(=O)Nc2cccnc2)cc1` registered a z-score of 0.0659.

In the case of `Cc1cc(C)nc(NS(=O)(=O)c2ccc(NC(=S)NC(=O)CC(C)C)cc2)n1`, the z-score is -0.244.

`CCOc1ccccc1C(=O)n1nc2nc(C)cc(C)c2c1N` came in with a z-score of -0.941.

The compound `CCOC(=O)c1sc(NC(=S)n2cc(C)cn2)c(C(=O)OCC)c1C` gave a z-score of 0.122.

In turn, `Cc1ccc(S(=O)(=O)N(C)c2ccc(C(=O)NCC3CCCO3)cc2)cc1` (centres undefined) came in with a z-score of 0.0311.

Compound `CC#CC[N+](C)(C)CCCCCCCCCCCC` registered a z-score of -0.51.

Compound `Cc1ccccc1NS(=O)(=O)c1ccc(NC(=O)c2nc3ncccn3n2)cc1` gave a z-score of 0.0108.

`CNc1oc(-c2ccco2)nc1C#N` showed a z-score of 0.498.

On to `CC1(C)CN=C(N2CCN(c3ncnc4sc5c(c34)CCCC5)CC2)S1`, for which the z-score is active: 5.02.

Consider `CCN(CC)S(=O)(=O)c1ccc(N2CCOCC2)c(NC(=O)c2cc(C)cc(C)c2)c1`, for which the z-score is -0.334.

In turn, `Cc1cccc(OCC(=O)NNC(=O)c2cc3ccccc3oc2=O)c1` returned a z-score of 0.755.

`Cc1ccc2c(c1)nnn2C1CCN(CC(=O)Nc2ccc3c(c2)OCCO3)CC1` registered a z-score of -0.198.

In turn, `CC(C)C1Cc2c(C#N)c(N)sc(=S)c2CO1` (centres undefined) yielded a z-score of 0.698.

For the compound `O=C(NCc1ccccc1)Nc1cccn(Cc2ccccc2)c1=O`, the z-score was -0.14.

As to `O=C1OC(c2cccs2)=N/C1=C\c1ccc(-c2ccccc2Cl)o1`, the z-score is 0.0833.

The compound `COc1ccc(N(C(=O)c2ccco2)C(C(=O)NC2CCCC2)c2ccc(N(C)C)cc2)cc1OC` (centres undefined) came in with a z-score of -0.1.

Regarding `CCN(C(=O)COC(=O)/C=C/c1ccc(O)c(OC)c1)C1CCS(=O)(=O)C1` (centres undefined), the z-score was -0.127.

The compound `N#C/C(=C(/O)COC(=O)c1ccc(C#N)cc1)c1nc2ccccc2s1` registered a z-score of -0.337.

`O=C(Cc1sc(-c2ccccc2Cl)nc1-c1ccccc1)Nc1ccccc1` registered a z-score of -0.145.

Consider `Fc1ccc(/C=N/NC2=Nc3cccc4cccc2c34)cc1`, for which the z-score was -0.367.

`Cc1nc(SCC(=O)Nc2ccnc3ccccc23)n[nH]1` displayed a z-score of -0.57.

Regarding `O=C(Nc1ccc(Cl)cc1C(=O)NCc1cccnc1)c1ccc(Cl)cc1Cl`, the z-score is -0.533.

With `COc1ccc(-c2nnc(SCCC(=O)O)n2-c2ccccc2)cc1OC`, the z-score was -0.345.

Turning to `CCOc1ccc(OCC)c(S(=O)(=O)NCCCN2CCOCC2)c1`, the z-score was 0.889.

`COC(=O)C1=NN(c2ccccc2)C2(S1)SC(C(C)=O)=C(C)N2c1ccccc1` (centres undefined): the z-score was -0.198.

In turn, `O=C(CSC1=NCCN1)NC1CCCCCC1` had a z-score of -0.616.

On to `CN1CCN(NC(=O)c2cccc(F)c2)CC1`, for which the z-score was -0.141.

As to `CCCCn1nc2cc(C(=O)NCCc3ccc(C)cc3)ccc2c1OCC`, the z-score is -0.356.

Compound `O=C(Nc1ccc2c(c1)OCO2)C1(S(=O)(=O)c2ccc(Cl)cc2)CC1` yielded a z-score of -1.49.

In turn, `O=C(COc1ccc(S(=O)(=O)NC2CCCCC2)cc1Cl)NCc1cccnc1` registered a z-score of -0.567.

In turn, `CC(C)COc1ccc(C(=O)NCc2ccco2)cc1` registered a z-score of -0.0157.

`N=c1c2c3c(sc2ncn1Cc1ccco1)CCCCC3` registered a z-score of 1.18.

Compound `COc1ccc(NC(=O)C2CC2)cc1NS(=O)(=O)c1ccc(F)cc1` yielded a z-score of 0.144.

`COc1ccc(CCNC(=O)c2c(O)c3c([nH]c2=O)CCCC3)cc1OC` displayed a z-score of -0.216.

For the compound `CC(NC(=O)/C(=C/c1ccc(OC(F)F)cc1)c1ccccc1)c1ccccc1` (centres undefined), the z-score was -0.337.

The compound `COc1ccc2[nH]c(=O)c(CN(Cc3nnnn3Cc3ccco3)C3CCCCC3)cc2c1` displayed a z-score of -1.4.

Consider `COc1ccc(-c2csc(NC(=O)c3cc(C)on3)c2C#N)cc1OC`, for which the z-score is -0.214.

Compound `Cc1ccc2nc(SCC(=O)c3ccc(Cl)s3)[nH]c2c1` came in with a z-score of 0.092.

Take `Cc1cc(C(=O)CSc2n[nH]c(-c3ccccc3F)n2)c(C)n1Cc1cccs1`: the z-score is -0.265.

Compound `c1ccc2c(NC3=NCCCCS3)cccc2c1` had a z-score of 0.0574.

Turning to `CC(C)(C)NS(=O)(=O)c1ccc(N2C(=O)c3ccccc3C2=O)cc1`, the z-score was -0.177.

In the case of `COc1ccc(C(=O)/C=C2/c3ccccc3CC(C)(C)N2C)cc1`, the z-score is -0.448.

For `COC(=O)CSc1nnc(C2COc3ccccc3O2)n1-c1ccccc1` (centres undefined), the z-score was -0.294.

`O=C(O)CC(C(=O)OCCOc1ccccc1)N1CCOCC1` (centres undefined) had a z-score of -0.546.

`COc1ccccc1/C=C(/C(=O)OCC(=O)Nc1ccccc1C)c1ccccc1` gave a z-score of -0.0551.

`COC(=O)c1c(NC(=O)Nc2ccc(Cl)cc2)sc(C)c1C` displayed a z-score of -0.185.

With `CCCN(CCC)C(=O)c1c(C)[nH]c(C(=O)OCC)c1C`, the z-score is -0.223.

The compound `Cc1ccc(-c2cc(N)n[nH]2)cc1` displayed a z-score of -0.105.

In the case of `Cc1ccc(C2C(C#N)=C(N)SC(N)=C2C#N)cc1`, the z-score is -0.773.

`Cc1ccc(C)c(NC(=O)CN(C)C(=O)CCN2C(=O)c3ccccc3C2=O)c1` showed a z-score of -0.0115.

With `O=C(CN1CC(c2ccccc2)CC1=O)OCc1cccc(Br)c1` (centres undefined), the z-score is -0.12.

`CCCOc1ccc(N2C(=O)CC(N(O)c3ccccc3)C2=O)cc1` (centres undefined) gave a z-score of -0.235.

Regarding `CCCOc1ccc(-c2nc(=S)[nH][nH]2)cc1`, the z-score came to 0.12.

`NC(=O)c1cccn1Cc1cccc(Cl)c1` displayed a z-score of 0.00567.

In turn, `CCOc1cc(N2CCOCC2)c(OCC)cc1NC(=O)c1ccc(OCc2c(C)noc2C)c(OC)c1` came in with a z-score of -0.712.

Regarding `COc1cc(CC(=O)NCc2cccs2)cc(OC)c1OC`, the z-score is -0.175.
